Data: the supplement of paper PMC8728848
The list shows a part of the results.

Experiments:
Experiment in all cases: glycan array binding signal (z-score within array); higher = stronger binding
Conditions in all cases: glycan notation: IUPAC condensed, linker removed
[1] = target: Man(a1-2)Man(a1-3)[Man(a1-2)Man(a1-6)]Man(a1-6)[Man(a1-2)Man(a1-2)Man(a1-3)]Man
How it was run: (§1)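 The binding signal is a Z-score computed within each array and averaged over linkers. Arrays of the same protein sequence at different concentrations or buffers were also averaged together. Data originate from 3228 arrays in the Consortium for Functional Glycomics database, kept only where the protein sequence was available.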

[2] = target: Man(a1-2)Man(a1-3)[Man(a1-2)Man(a1-6)]Man(a1-6)[Man(a1-2)Man(a1-2)Man(a1-3)]Man(b1-4)GlcNAc(b1-4)GlcNAc
How it was run: as §1

[3] = target: Man(a1-2)Man(a1-3)[Man(a1-6)]Man(a1-6)[Man(a1-2)Man(a1-3)]Man(b1-4)GlcNAc(b1-4)GlcNAc
How it was run: as §1

[4] = target: Man(a1-2)Man(a1-6)[Man(a1-3)]Man(a1-6)[Man(a1-2)Man(a1-2)Man(a1-3)]Man
How it was run: as §1

[5] = target: Man(a1-2)Man(a1-6)[Man(a1-3)]Man(a1-6)[Man(a1-2)Man(a1-2)Man(a1-3)]Man(b1-4)GlcNAc(b1-4)GlcNAc
How it was run: as §1

Man(a1-3)[Man(a1-6)]Man = target: Man(a1-3)[Man(a1-6)]Man
How it was run: as §1

[6] = target: Man(a1-3)[Man(a1-6)]Man(a1-6)[Man(a1-2)Man(a1-3)]Man(b1-4)GlcNAc(b1-4)GlcNAc
How it was run: as §1

[7] = target: Man(a1-3)[Man(a1-6)]Man(a1-6)[Man(a1-3)]Man
How it was run: as §1

[8] = target: Man(a1-3)[Man(a1-6)]Man(a1-6)[Man(a1-3)]Man(b1-4)GlcNAc(b1-4)GlcNAc
How it was run: as §1

[9] = target: Man(a1-3)[Man(a1-6)]Man(b1-4)GlcNAc(b1-4)GlcNAc
How it was run: as §1

[10] = target: Man(a1-3)[Man(a1-6)]Man(b1-4)GlcNAc(b1-4)[Fuc(a1-6)]GlcNAc
How it was run: as §1

Man(a1-6)Man = target: Man(a1-6)Man
How it was run: as §1

Man(b1-4)GlcNAc = target: Man(b1-4)GlcNAc
How it was run: as §1

MurNAc(b1-4)GlcNAc = target: MurNAc(b1-4)GlcNAc
How it was run: as §1

Neu5Ac(a2-3)Gal = target: Neu5Ac(a2-3)Gal
How it was run: as §1

[11] = target: Neu5Ac(a2-3)Gal(b1-3)GalNAc
How it was run: as §1

[12] = target: Neu5Ac(a2-3)Gal(b1-3)GalNAc(b1-3)Gal(a1-4)Gal(b1-4)Glc
How it was run: as §1

[13] = target: Neu5Ac(a2-3)Gal(b1-3)GalNAc(b1-4)Gal(b1-4)Glc
How it was run: as §1

[14] = target: Neu5Ac(a2-3)Gal(b1-3)GalNAc(b1-4)[Neu5Ac(a2-3)]Gal(b1-4)Glc
How it was run: as §1

[15] = target: Neu5Ac(a2-3)Gal(b1-3)GalNAc(b1-4)[Neu5Ac(a2-8)Neu5Ac(a2-3)]Gal(b1-4)Glc
How it was run: as §1

[16] = target: Neu5Ac(a2-3)Gal(b1-3)GalNAc6S
How it was run: as §1

[17] = target: Neu5Ac(a2-3)Gal(b1-3)GlcNAc
How it was run: as §1

[18] = target: Neu5Ac(a2-3)Gal(b1-3)GlcNAc(b1-2)Man
How it was run: as §1

[19] = target: Neu5Ac(a2-3)Gal(b1-3)GlcNAc(b1-2)Man(a1-3)[GlcNAc(b1-4)][Neu5Ac(a2-3)Gal(b1-3)GlcNAc(b1-2)Man(a1-6)]Man(b1-4)GlcNAc(b1-4)GlcNAc
How it was run: as §1

[20] = target: Neu5Ac(a2-3)Gal(b1-3)GlcNAc(b1-2)Man(a1-3)[Neu5Ac(a2-3)Gal(b1-3)GlcNAc(b1-2)Man(a1-6)]Man(b1-4)GlcNAc(b1-4)GlcNAc
How it was run: as §1

[21] = target: Neu5Ac(a2-3)Gal(b1-3)GlcNAc(b1-2)[Neu5Ac(a2-3)Gal(b1-3)GlcNAc(b1-4)]Man(a1-6)[Neu5Ac(a2-3)Gal(b1-3)GlcNAc(b1-2)Man(a1-3)]Man(b1-4)GlcNAc(b1-4)GlcNAc
How it was run: as §1

[22] = target: Neu5Ac(a2-3)Gal(b1-3)GlcNAc(b1-3)Gal(b1-3)GlcNAc
How it was run: as §1

[23] = target: Neu5Ac(a2-3)Gal(b1-3)GlcNAc(b1-3)Gal(b1-4)GlcNAc
How it was run: as §1

[24] = target: Neu5Ac(a2-3)Gal(b1-3)GlcNAc(b1-3)GalNAc
How it was run: as §1

[25] = target: Neu5Ac(a2-3)Gal(b1-3)GlcNAc(b1-6)GalNAc
How it was run: as §1

[26] = target: Neu5Ac(a2-3)Gal(b1-3)GlcNAc6S
How it was run: as §1

[27] = target: Neu5Ac(a2-3)Gal(b1-3)[Fuc(a1-4)]GlcNAc
How it was run: as §1

[28] = target: Neu5Ac(a2-3)Gal(b1-3)[Fuc(a1-4)]GlcNAc(b1-3)Gal(b1-3)[Fuc(a1-4)]GlcNAc
How it was run: as §1

[29] = target: Neu5Ac(a2-3)Gal(b1-3)[Fuc(a1-4)]GlcNAc(b1-3)Gal(b1-4)[Fuc(a1-3)]GlcNAc
How it was run: as §1

[30] = target: Neu5Ac(a2-3)Gal(b1-3)[GlcNAc(b1-6)]GalNAc
How it was run: as §1

[31] = target: Neu5Ac(a2-3)Gal(b1-3)[Neu5Ac(a2-6)]GalNAc
How it was run: as §1

[32] = target: Neu5Ac(a2-3)Gal(b1-3)[Neu5Ac(a2-6)]GlcNAc(b1-3)[Fuc(a1-3)[Gal(b1-4)]GlcNAc(b1-6)]Gal(b1-4)Glc
How it was run: as §1

B1: Pwp2 (Candida glabrata) (protein)
chain: MGSSHHHHHHSSGLVPRGSHMASKNPVELNNVCTFPNDYGRIPGFTVLVGRLGLLISASDYKELLRYPGAFLIATQDTMTTSPNFELTGFPFFTGLYGLTVFPLDLLVELRGYFVPPNSGQYTFTLSDSDDAAIIFLGNPSAFPCGDLQNWPKPSEEDITVTDHLFPSRTLYLIEGVAYPMRIAYYNGIGAGRLNAAFIDPSGTRHTNWEGYIWQYDPCSTCTYS
[1]
  glycan array binding signal (z-score): -0.722
[2]
  glycan array binding signal (z-score): 2.68
[3]
  glycan array binding signal (z-score): -0.572
[4]
  glycan array binding signal (z-score): -0.407
[5]
  glycan array binding signal (z-score): -0.467
Man(a1-3)[Man(a1-6)]Man
  glycan array binding signal (z-score): -0.513
[6]
  glycan array binding signal (z-score): -0.412
[7]
  glycan array binding signal (z-score): 5.45
[8]
  glycan array binding signal (z-score): 0.106
[9]
  glycan array binding signal (z-score): 0.07
[10]
  glycan array binding signal (z-score): -0.046
Man(a1-6)Man
  glycan array binding signal (z-score): -0.485
Man(b1-4)GlcNAc
  glycan array binding signal (z-score): -0.694
MurNAc(b1-4)GlcNAc
  glycan array binding signal (z-score): -0.475
Neu5Ac(a2-3)Gal
  glycan array binding signal (z-score): 0.433
[11]
  glycan array binding signal (z-score): 0.274
[12]
  glycan array binding signal (z-score): -0.307
[13]
  glycan array binding signal (z-score): -0.305
[14]
  glycan array binding signal (z-score): -0.274
[15]
  glycan array binding signal (z-score): -0.08
[16]
  glycan array binding signal (z-score): -0.264
[17]
  glycan array binding signal (z-score): -0.299
[18]
  glycan array binding signal (z-score): 0.011
[19]
  glycan array binding signal (z-score): -0.326
[20]
  glycan array binding signal (z-score): 0.088
[21]
  glycan array binding signal (z-score): -0.179
[22]
  glycan array binding signal (z-score): -0.269
[23]
  glycan array binding signal (z-score): -0.444
[24]
  glycan array binding signal (z-score): -0.419
[25]
  glycan array binding signal (z-score): -0.375
[26]
  glycan array binding signal (z-score): -0.456
[27]
  glycan array binding signal (z-score): 0.549
[28]
  glycan array binding signal (z-score): 4
[29]
  glycan array binding signal (z-score): 0.002
[30]
  glycan array binding signal (z-score): 0.001
[31]
  glycan array binding signal (z-score): 1.54
[32]
  glycan array binding signal (z-score): 0
